The source of these data is patent publication US9797889B2, “Activation of bioluminescence by structural complementation” (Promega Corporation, priority 2013, dated 2017).

For the experiment, the target named is 5A2+R11E (Oplophorus gracilirostris, UniProt Q9GV45, A31E/A60N/A81I/F95D/G42A/G62A/G78A/G94A/G98A/I117V/K70R/L54V/L99Q/M102K/P142E/Q151K/Q38E/Q45L/V71I/Y165I). Particulars: 5A2+R11E lysate 1:10; NLpep containing E as the 9th residue.
Chain of 5A2+R11E (Q9GV45 other isoform, or with tags, fused parts or gaps with the stated changes): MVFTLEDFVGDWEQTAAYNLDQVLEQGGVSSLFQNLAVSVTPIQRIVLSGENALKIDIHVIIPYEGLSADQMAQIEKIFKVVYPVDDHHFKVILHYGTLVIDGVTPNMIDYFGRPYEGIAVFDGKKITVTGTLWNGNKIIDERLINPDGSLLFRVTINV

As for NVTGWRLFEKISN [NLpep75], the “luminescence of NLpep with NLpoly mutation R11E” value is “lower luminescence”.

With NVTGWRLFERISN [NLpep72], the “luminescence of NLpep with NLpoly mutation R11E” value was “lower luminescence”.
